Results taken from publication PMC4081100.
The list shows a part of the results, in another mix than the full data. For some of these results: At the low end of the ranking, values are background and their order means little. Some of the results follow. For some of these results: The exact form of the protein is not confirmed.

Key:
Assay in all cases: universal protein binding microarray (PBM)
Conditions in all cases: transcription factors of Arabidopsis thaliana; high values mean tight binding; most listed sequences are background and not binding sites; double strand, one strand shown
GST-ANAC092(1-176) = molecular target: T1, GST-ANAC092(1-176) (UniProt Q9FKA0)
T1 sequence: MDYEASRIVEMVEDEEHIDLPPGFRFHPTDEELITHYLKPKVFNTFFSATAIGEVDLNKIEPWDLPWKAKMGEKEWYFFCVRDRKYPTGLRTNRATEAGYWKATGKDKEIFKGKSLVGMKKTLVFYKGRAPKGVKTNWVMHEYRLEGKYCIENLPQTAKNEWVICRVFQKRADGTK

GST-NTL6(1-168) = GST-NTL6(1-168) (UniProt Q9SCK6)
GST-ANAC019 NAC domain = molecular target: T2, GST-ANAC019 NAC domain (UniProt Q9C932)
T2 sequence: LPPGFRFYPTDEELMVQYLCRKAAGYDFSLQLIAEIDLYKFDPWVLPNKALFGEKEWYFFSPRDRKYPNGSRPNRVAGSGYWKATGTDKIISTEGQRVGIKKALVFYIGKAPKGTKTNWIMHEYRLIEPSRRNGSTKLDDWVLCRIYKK

GST-ANAC055(1-171) = molecular target: T3, GST-ANAC055(1-171) (UniProt Q9LDY8)
T3 sequence: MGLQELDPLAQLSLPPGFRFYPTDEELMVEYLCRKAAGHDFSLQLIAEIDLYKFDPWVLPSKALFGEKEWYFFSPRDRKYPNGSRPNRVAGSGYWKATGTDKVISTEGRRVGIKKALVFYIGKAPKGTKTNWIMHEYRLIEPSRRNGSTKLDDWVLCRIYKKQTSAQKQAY

GST-ATAF1 NAC domain = molecular target: T4, GST-ATAF1 NAC domain (UniProt Q39013)
T4 sequence: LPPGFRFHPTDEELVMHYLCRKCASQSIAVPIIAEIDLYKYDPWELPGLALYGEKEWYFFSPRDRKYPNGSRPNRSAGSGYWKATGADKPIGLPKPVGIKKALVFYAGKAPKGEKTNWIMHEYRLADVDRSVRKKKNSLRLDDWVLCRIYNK

[1] = molecular target: T5, GST-ANAC092(1-285) full length (UniProt Q9FKA0)
T5 sequence: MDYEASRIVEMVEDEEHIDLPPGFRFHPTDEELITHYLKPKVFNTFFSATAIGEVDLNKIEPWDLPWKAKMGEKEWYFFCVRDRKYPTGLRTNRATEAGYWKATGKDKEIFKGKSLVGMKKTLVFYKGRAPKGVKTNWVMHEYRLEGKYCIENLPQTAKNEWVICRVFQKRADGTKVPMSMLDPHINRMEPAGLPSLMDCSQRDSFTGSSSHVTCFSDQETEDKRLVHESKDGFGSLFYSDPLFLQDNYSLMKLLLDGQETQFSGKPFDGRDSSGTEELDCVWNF

GST-NAP(1-166) = molecular target: T6, GST-NAP(1-166) (UniProt O49255)
T6 sequence: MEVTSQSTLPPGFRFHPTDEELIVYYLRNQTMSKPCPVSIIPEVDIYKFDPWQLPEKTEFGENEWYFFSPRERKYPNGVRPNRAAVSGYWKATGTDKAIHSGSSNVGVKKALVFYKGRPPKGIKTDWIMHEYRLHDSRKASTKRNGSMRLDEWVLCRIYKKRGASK

GST-NST2(1-184) = molecular target: T7, GST-NST2(1-184) (UniProt Q9M274)
T7 sequence: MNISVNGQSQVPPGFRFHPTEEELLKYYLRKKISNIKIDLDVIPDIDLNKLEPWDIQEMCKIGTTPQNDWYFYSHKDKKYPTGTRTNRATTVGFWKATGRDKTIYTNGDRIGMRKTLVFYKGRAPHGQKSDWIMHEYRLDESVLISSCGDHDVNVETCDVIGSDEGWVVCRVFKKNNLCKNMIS

GST-NTL8 NAC domain = molecular target: T8, GST-NTL8 NAC domain (UniProt Q9XIN7)
T8 sequence: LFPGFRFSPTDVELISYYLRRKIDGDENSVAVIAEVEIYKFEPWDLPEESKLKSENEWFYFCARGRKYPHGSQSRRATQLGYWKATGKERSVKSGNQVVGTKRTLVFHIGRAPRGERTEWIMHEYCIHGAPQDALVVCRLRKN

GST-SND1(1-203) = molecular target: T9, GST-SND1(1-203) (UniProt Q9LPI7)
T9 sequence: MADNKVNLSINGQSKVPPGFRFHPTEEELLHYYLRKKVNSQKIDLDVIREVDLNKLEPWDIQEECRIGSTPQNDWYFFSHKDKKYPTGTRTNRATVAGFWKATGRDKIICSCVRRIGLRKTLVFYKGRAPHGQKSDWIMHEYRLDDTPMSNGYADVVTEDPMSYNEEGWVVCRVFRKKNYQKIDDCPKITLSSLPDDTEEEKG

GST-VND3 NAC domain = molecular target: T10, GST-VND3 NAC domain (UniProt Q9FH59)
T10 sequence: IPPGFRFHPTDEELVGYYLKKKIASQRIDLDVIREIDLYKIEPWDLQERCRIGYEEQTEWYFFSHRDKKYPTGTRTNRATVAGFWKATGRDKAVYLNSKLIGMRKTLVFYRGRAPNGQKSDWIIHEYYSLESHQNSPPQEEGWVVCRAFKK

GST-VND7 NAC domain = molecular target: T11, GST-VND7 NAC domain (UniProt Q9C8W9)
T11 sequence: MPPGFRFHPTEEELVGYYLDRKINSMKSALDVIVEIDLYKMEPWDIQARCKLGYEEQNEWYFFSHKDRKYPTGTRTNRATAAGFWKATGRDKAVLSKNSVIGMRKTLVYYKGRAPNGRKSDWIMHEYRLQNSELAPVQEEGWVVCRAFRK

[2] = molecular target: T12, GST-VOZ2 (Arabidopsis thaliana) (UniProt Q9SLB9)
T12 sequence: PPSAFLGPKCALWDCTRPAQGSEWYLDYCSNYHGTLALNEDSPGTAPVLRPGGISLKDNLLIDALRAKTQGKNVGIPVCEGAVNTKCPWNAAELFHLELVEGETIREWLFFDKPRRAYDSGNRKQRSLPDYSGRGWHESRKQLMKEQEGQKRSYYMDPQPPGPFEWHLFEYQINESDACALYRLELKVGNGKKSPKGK

GST-WRKY1(266-371) = GST-WRKY1(266-371) (UniProt Q9SI37)
GST-WRKY1(266-371), sequence (Q9SI37 266-371, chain 1 of 2): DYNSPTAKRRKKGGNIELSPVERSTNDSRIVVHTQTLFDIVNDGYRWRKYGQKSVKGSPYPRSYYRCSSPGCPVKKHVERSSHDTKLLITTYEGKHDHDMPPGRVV

UniProt Q9SCK6, sequence (Q9SCK6 1-168): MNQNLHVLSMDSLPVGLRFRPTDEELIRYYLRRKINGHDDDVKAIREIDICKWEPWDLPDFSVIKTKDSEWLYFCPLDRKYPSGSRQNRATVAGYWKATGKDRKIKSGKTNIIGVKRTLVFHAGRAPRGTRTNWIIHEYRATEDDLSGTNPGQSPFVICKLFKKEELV

Row | Sequence | binding signal (GST-ANAC092(1-176)) | binding signal (GST-NTL6(1-168)) | binding signal (GST-ANAC019 NAC domain) | binding signal (GST-ANAC055(1-171)) | binding signal (GST-ATAF1 NAC domain) | binding signal [1] | binding signal (GST-NAP(1-166)) | binding signal (GST-NST2(1-184)) | binding signal (GST-NTL8 NAC domain) | binding signal (GST-SND1(1-203)) | binding signal (GST-VND3 NAC domain) | binding signal (GST-VND7 NAC domain) | binding signal [2] | binding signal (GST-WRKY1(266-371))
1 | TCTGACCA | -0.119 E-score | -0.0722 E-score | -0.0772 E-score | -0.0606 E-score | -0.073 E-score | -0.102 E-score | -0.133 E-score | -0.0231 E-score | -0.184 E-score | -0.0429 E-score | -0.0254 E-score | -0.044 E-score | -0.04 E-score | 0.456 E-score
2 | CTTGGTCA | -0.084 E-score | -0.0225 E-score | -0.0252 E-score | -0.119 E-score | -0.182 E-score | -0.0488 E-score | -0.127 E-score | -0.122 E-score | -0.0354 E-score | -0.113 E-score | 0.00324 E-score | 0.0376 E-score | -0.145 E-score | 0.429 E-score
3 | CTGACCAA | -0.0802 E-score | -0.0481 E-score | 0.00376 E-score | -0.0282 E-score | 0.0192 E-score | -0.0851 E-score | -0.151 E-score | -0.0464 E-score | -0.0782 E-score | -0.118 E-score | -0.0124 E-score | -0.0774 E-score | 0.0163 E-score | 0.427 E-score
4 | CGAAGACC | -0.0859 E-score | -0.0747 E-score | 0.0286 E-score | -0.183 E-score | -0.177 E-score | -0.13 E-score | -0.0937 E-score | -0.16 E-score | 0.0247 E-score | -0.143 E-score | -0.145 E-score | -0.0605 E-score | 0.00257 E-score | 0.436 E-score
5 | GACTGACC | -0.111 E-score | -0.11 E-score | -0.123 E-score | -0.249 E-score | -0.196 E-score | -0.0429 E-score | -0.143 E-score | -0.105 E-score | -0.000955 E-score | -0.0453 E-score | -0.256 E-score | -0.177 E-score | -0.167 E-score | 0.42 E-score
6 | CGGTCATA | -0.295 E-score | -0.168 E-score | -0.243 E-score | -0.143 E-score | -0.123 E-score | -0.0554 E-score | 0.00553 E-score | -0.155 E-score | -0.137 E-score | -0.0611 E-score | -0.0774 E-score | -0.231 E-score | -0.158 E-score | 0.415 E-score
7 | CTATGACC | -0.171 E-score | -0.0402 E-score | -0.147 E-score | -0.177 E-score | -0.143 E-score | -0.142 E-score | -0.0636 E-score | -0.128 E-score | -0.00596 E-score | -0.119 E-score | -0.0802 E-score | -0.138 E-score | -0.0806 E-score | 0.412 E-score
8 | ATGACCGA | -0.23 E-score | -0.0888 E-score | -0.133 E-score | -0.082 E-score | -0.174 E-score | -0.119 E-score | 0.0175 E-score | -0.0516 E-score | -0.021 E-score | -0.107 E-score | -0.0852 E-score | -0.171 E-score | -0.078 E-score | 0.405 E-score
9 | GGCGGTCA | -0.115 E-score | -0.108 E-score | -0.00971 E-score | -0.266 E-score | -0.281 E-score | -0.235 E-score | -0.0795 E-score | -0.208 E-score | -0.122 E-score | -0.194 E-score | -0.257 E-score | -0.219 E-score | -0.127 E-score | 0.428 E-score
10 | CAAGACCG | -0.0199 E-score | -0.0487 E-score | 0.0388 E-score | -0.0564 E-score | -0.17 E-score | -0.0734 E-score | 0.0131 E-score | -0.0497 E-score | 0.0186 E-score | -0.0644 E-score | -0.0307 E-score | -0.0736 E-score | -0.0284 E-score | 0.405 E-score
11 | TAGGGTCA | -0.167 E-score | -0.107 E-score | -0.151 E-score | -0.226 E-score | -0.124 E-score | -0.0495 E-score | -0.158 E-score | -0.0627 E-score | -0.185 E-score | -0.0834 E-score | -0.121 E-score | -0.157 E-score | 0.0907 E-score | 0.42 E-score
